{
  "source": "the supplement of paper PMC7826260",
  "note": "This is one part of the list. One pool of 16,384 single-stranded DNAs met each Rep nickase domain in vitro (1 h at 37 °C, 3 µM enzyme); the outer parts of the 90-letter strands are left off. A value is the log2 ratio of uncut reads to the pool without enzyme; uncut sequences lie near 0, cut ones below; no hit call is given. Counts are relative to all reads; uncut strands gain when others are lost, and binding without cutting may add a little.",
  "data": [
    {"test_system": "T1, Rep nickase domain of tomato golden mosaic virus", "T1 sequence (residues 1-124 of Rep, tag left off)": "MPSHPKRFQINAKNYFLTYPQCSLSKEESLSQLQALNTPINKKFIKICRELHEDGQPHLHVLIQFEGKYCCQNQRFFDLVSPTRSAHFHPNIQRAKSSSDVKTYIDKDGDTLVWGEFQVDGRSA", "assay": "uncleaved DNA left, log2 of reads against the no-enzyme library (log2 ratio); higher = less cleavage (more negative = more Rep cleavage of the k-mer); sequences stand for … in CTCGTCCG…ACCGGAGA", "procedure": "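A pool of 90-nt single-stranded DNAs with seven random bases just before the constant AC of the nick site (name = the seven bases) was cut by 3 µM recombinant His6-SUMO-tagged Rep nickase domain (300 nM DNA, 50 mM HEPES pH 8.0, 50 mM NaCl, 1 mM MnCl2, 1 h, 37 °C, three replicates). Uncut DNA was amplified and sequenced.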", "values": [
      {"sequence": "GGTGCTC", "uncleaved DNA left (log2)": -0.0846},
      {"sequence": "TTAAGCC", "uncleaved DNA left (log2)": -0.661},
      {"sequence": "GCGCTTC", "uncleaved DNA left (log2)": -0.061},
      {"sequence": "ACGCTGT", "uncleaved DNA left (log2)": 0.0149},
      {"sequence": "ACGGCTA", "uncleaved DNA left (log2)": -0.118},
      {"sequence": "CAATCTC", "uncleaved DNA left (log2)": -1.33},
      {"sequence": "CTCGGGA", "uncleaved DNA left (log2)": -0.00381},
      {"sequence": "TCCTCGC", "uncleaved DNA left (log2)": 0.0257},
      {"sequence": "CAAGCGA", "uncleaved DNA left (log2)": -0.0624},
      {"sequence": "AGTGACT", "uncleaved DNA left (log2)": 0.0345},
      {"sequence": "CTGCGTC", "uncleaved DNA left (log2)": -0.165},
      {"sequence": "CAACCTT", "uncleaved DNA left (log2)": -0.368},
      {"sequence": "ACCTCGA", "uncleaved DNA left (log2)": 0.0427},
      {"sequence": "GCCTGCC", "uncleaved DNA left (log2)": 0.0645},
      {"sequence": "ATCTTAG", "uncleaved DNA left (log2)": 0.0226},
      {"sequence": "ATCCGAG", "uncleaved DNA left (log2)": 0.0349},
      {"sequence": "TGCTTGC", "uncleaved DNA left (log2)": 0.116},
      {"sequence": "AGGGGCA", "uncleaved DNA left (log2)": 0.187},
      {"sequence": "CTAAGTT", "uncleaved DNA left (log2)": -0.665},
      {"sequence": "TTAAGGA", "uncleaved DNA left (log2)": 0.0945},
      {"sequence": "TAATCGT", "uncleaved DNA left (log2)": -4.13},
      {"sequence": "GAATCCA", "uncleaved DNA left (log2)": -0.0322},
      {"sequence": "GGGTCAG", "uncleaved DNA left (log2)": 0.104},
      {"sequence": "TTACGAC", "uncleaved DNA left (log2)": -0.00202},
      {"sequence": "CGCTAAC", "uncleaved DNA left (log2)": 0.0261},
      {"sequence": "GTAAGAA", "uncleaved DNA left (log2)": 0.0433},
      {"sequence": "GAGTCGT", "uncleaved DNA left (log2)": -0.0582},
      {"sequence": "CGGGGTT", "uncleaved DNA left (log2)": -0.137},
      {"sequence": "TACGTAC", "uncleaved DNA left (log2)": -0.115},
      {"sequence": "GCAATCA", "uncleaved DNA left (log2)": -0.014},
      {"sequence": "AGGGGAG", "uncleaved DNA left (log2)": 0.236},
      {"sequence": "CTACCGC", "uncleaved DNA left (log2)": -0.0918},
      {"sequence": "GCATTCG", "uncleaved DNA left (log2)": -0.148},
      {"sequence": "TGTCGTT", "uncleaved DNA left (log2)": -0.2},
      {"sequence": "CCACGAC", "uncleaved DNA left (log2)": -0.0506},
      {"sequence": "ACCTGGT", "uncleaved DNA left (log2)": 0.249},
      {"sequence": "TGCGAAA", "uncleaved DNA left (log2)": 0.0798},
      {"sequence": "CACGCTT", "uncleaved DNA left (log2)": -0.0731},
      {"sequence": "TGGTGGA", "uncleaved DNA left (log2)": 0.065},
      {"sequence": "CATGTGC", "uncleaved DNA left (log2)": -0.112}
    ]}
  ]
}
